# Data from PubChem BioAssay AID651820 (National Center for Advancing Translational Sciences (NCATS), 2012).
# In all, about 340,000 compounds went through this assay and about 12,000 (3.5%) were called active. The shares of active, inactive and inconclusive entries below differ from those in the screen. The call rests on the fitted dose curve; in most records, active means well fitted inhibition curve with a large enough effect; inconclusive means small, poorly fitted or top-dose-only effect, or another doubt; inactive means no such curve, though single readings can be large or run the other way. No potency is given beside an inconclusive call; the fits are too rough.
# Experiment: qHTS Assay for Inhibitors of Hepatitis C Virus (HCV)
# Conditions: Huh7.5.1 HCVcc-Cre (HCVcc is cell-culture hepatitis C virus) infection, luciferase reporter, 44 h; activity change, negative = inhibition: at 41.8 µM (top of the series) unless noted
# Outline: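 Cells seeded at 1,000/well and cultured 4 h, then compounds added followed by HCVcc-Cre virus (~0.5 moi). After 44 h further culture, luciferase substrate was added, plates held 15 min at room temperature, and luminescence read for 15 sec.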
# On the % scale 0 is the no-effect control and ±100 the full control effect; potency means the concentration at half of the fitted maximal effect; tags describe the fitted curve by direction and shape.
SMILES,"activity change, negative = inhibition",Potency
CN(C)c1ccc(N=Nc2ccc(C(=O)O)cc2)cc1,inactive: 16.1%,–
CCOC(=O)c1oc2ccccc2c1NC(=O)c1cccc(OC)c1OC,–,"inconclusive [inhibitor, full curve, poor fit]"
c1ccc(-c2nccc(-c3ccc4c(c3)OCO4)n2)cc1,–,"inconclusive [inhibitor, single point]"
Fc1ccc(F)c(C2=NNC(=Nc3ccccc3F)SC2)c1,–,"inconclusive [inhibitor, partial curve]"
c1coc(C2=NCCc3ccccc32)c1,inactive: 5.63%,–
O=C(/C=C/c1ccccc1[N+](=O)[O-])Nc1cccc(S(=O)(=O)NC2=NCCCCC2)c1,–,active: 3.16 µM
N#Cc1ccc2ccn(CC(=O)NCc3ccccc3)c2c1,–,"inconclusive [inhibitor, partial curve]"
Cn1c(=O)c2sccc2n(Cc2cccc(Br)c2)c1=O,–,active: 11.2 µM
Cc1ccc(C(=O)N2CCc3ccccc32)cc1NC(=O)c1ccco1,–,"inconclusive [inhibitor, single point]"
O=C(Nc1nc(-c2ccccn2)cs1)c1ccc(Cl)s1,–,"inconclusive [inhibitor, full curve, poor fit]"
CCN(CC)c1ccc(/C=N/NC(=O)c2ccc3nc[nH]c3c2)c(O)c1,–,active: 5.01 µM
Cc1ccc(S/C(=N\S(=O)(=O)c2ccc(Cl)cc2)c2ccccc2)cc1,–,"inconclusive [inhibitor, single point]"
CCN(C(=O)CN1CCN(C)CC1)c1c(N)n(Cc2ccccc2)c(=O)[nH]c1=O,inactive: 4.44%,–
CCC(=NCc1ccco1)c1c(O)n(-c2ccc(OC)cc2)c(=O)[nH]c1=O,inactive: 3.39%,–
CCC(=O)Nc1ccc(NC(=S)NC(=O)c2cc3ccccc3o2)cc1,inactive: 8.17%,–
COc1cc(CN2CCNC(=O)C2CC(=O)NC2CCC2)cc(OC)c1 (stereo not given),inactive: 2.1%,–
CCOC(=O)c1cnc(SCc2ccccc2)nc1N,–,"inconclusive [inhibitor, single point]"
CCOC(=O)c1c(N)sc(C(=O)N(CC)CC)c1C,inactive: 3%,–
COc1ccccc1C(=O)NC(CCSC)C(=O)NCc1ccccn1 (stereo not given),inactive: 5.98%,–
CCCOc1ccc(OCCn2nc(C(=O)O)c3ccccc3c2=O)cc1,inactive: 16.2%,–
Fc1ccc(Cn2c(SCc3ccc(F)c(F)c3)nnc2C(F)(F)F)cc1,–,"inconclusive [inhibitor, single point]"
COc1ccc(-c2noc(C3CCCN(C(=O)c4cccc(F)c4)C3)n2)cc1 (stereo not given),–,"inconclusive [inhibitor, single point]"
CCCC(=O)Nc1ccc(NC(=O)c2ccco2)c(OC)c1,–,"inconclusive [inhibitor, full curve]"
CCc1noc2c1/C(=N\O)CC(c1ccccc1)C2 (stereo not given),inactive: -16.9%,–
COc1ccccc1NC(=O)c1cc(C)oc1C,inactive: -14.8%,–

SMILES,"activity change, negative = inhibition",Potency
COc1ccc(NC(=O)N2CCCCCC2)cc1,inactive: 15%,–
COc1ccccc1CN(C)C(=O)CN1CCN(S(=O)(=O)c2ccc3c(c2)OCCCO3)CC1,inactive: -9.58%,–
OCCNc1c2ccccc2nc2ccccc12,–,"inconclusive [inhibitor, single point]"
CCN(CC)C(=O)N1CCN(Cc2ccc3c(c2)OCO3)CC1,inactive: -2.77%,–
Cc1ccc(N(C(=O)CCl)C(C(=O)NC2CCCCC2)c2cccnc2)cc1C (stereo not given),–,active: 0.891 µM
COc1ccc(C2CC(c3c(O)cc(C)oc3=O)=NCCS2)c(OC)c1 (stereo not given),–,"inconclusive [inhibitor, full curve, poor fit]"
CCCc1cc(NCCCCO)n2c(nc3ccccc32)c1C#N,–,"inconclusive [inhibitor, single point]"
CCc1ccc(C(=O)COC(=O)CCc2nc3ccccc3c(=O)[nH]2)cc1,inactive: -2.69%,–
Nc1nc(Nc2cccc(Cl)c2)n[nH]1,–,"inconclusive [inhibitor, single point]"
COc1ccc(Oc2nc(-c3ccccn3)ncc2OC)cc1,–,"inconclusive [inhibitor, single point]"
Cc1nc2ccccc2c(=O)n1Cc1ccco1,–,"inconclusive [inhibitor, single point]"
O=C(COc1ccc2c(-c3ccccc3)cc(=O)oc2c1)N[C@@H](Cc1c[nH]c2ccc(O)cc12)C(=O)O,–,"inconclusive [inhibitor, single point]"
O=C(Nc1ccc([N+](=O)[O-])cc1)c1cc(-c2ccccn2)nc2c(Cl)cccc12,–,"inconclusive [inhibitor, partial curve]"
O=C(Cc1ccc(NC(=O)C2CCCN(C(=O)CCc3ccccc3)C2)cc1)Nc1cccc(C(=O)N2CCCCC2)c1 (stereo not given),–,active: 7.94 µM
O=C(Nc1nc2ccc(C(=O)N3CCCCC3)cc2s1)C1CCCCC1,inactive: -9.01%,–
COc1ccc(CNc2nc(SCC(=O)NCc3ccco3)nc3ccccc23)cc1,–,"inconclusive [inhibitor, single point]"
COc1cc(NC(=O)COc2ccc3c(C)cc(=O)oc3c2C)cc(OC)c1OC,–,"inconclusive [inhibitor, full curve, poor fit]"
Nc1ccccc1SCc1ccccc1,inactive: -4.1%,–
O=C(Nc1ccc(Br)cc1)c1ccccc1Br,inactive: -16.6%,–
COCC1CCCCC1OS(N)(=O)=O (stereo not given),inactive: 24.4%,–
CCOC(=O)c1c(NC(=O)Cn2cnc3scc(-c4ccc(C)cc4)c3c2=O)sc(C)c1C,–,"inconclusive [inhibitor, single point]"
COc1ccc(-n2nc3c(c2NC(=O)COc2ccccc2)CS(=O)C3)cc1 (stereo not given),inactive: 1.93%,–
O=C(c1ccccc1Cl)N1CCC(n2cccc2)CC1,inactive: 10.7%,–
COCCCNC(=O)CSC1=Nc2ccccc2C2=NC(CC(=O)NCc3ccccc3)C(=O)N12 (stereo not given),–,"inconclusive [inhibitor, single point]"
CNc1nc(-c2ccc(Cl)cc2)cs1,–,"inconclusive [inhibitor, full curve]"

SMILES,"activity change, negative = inhibition",Potency
CCO[C@H]1OC(C(=O)N2CCN(Cc3ccccc3)CC2)=C[C@@H](c2ccc(C(F)(F)F)cc2)[C@@H]1CCCO,–,"inconclusive [inhibitor, single point]"
O=C(Nc1ccc(CN2CCOCC2)cc1)c1cccc(-c2cc3ccccc3oc2=O)c1,–,"inconclusive [inhibitor, single point]"
CC1Cc2ccccc2N1NC(=O)c1ccc(Cl)c(S(N)(=O)=O)c1 (stereo not given),–,"inconclusive [inhibitor, single point]"
O=C(CN1CCN(CCN2C(=O)c3cccc4cccc(c34)C2=O)CC1)c1ccc(Cl)cc1,–,"inconclusive [inhibitor, partial curve]"
O=C1[C@@H](Oc2ccccc2)[C@@H](c2cnc3ccccc3c2)N1c1ccccc1,–,"inconclusive [inhibitor, single point]"
COc1ccc(CCNC(=O)COc2ccc(N(C)S(=O)(=O)c3ccc(C)cc3)cc2)cc1,–,"inconclusive [inhibitor, single point]"
CCOc1ccccc1C1CC(=O)Nc2cc(C)c(C)cc21 (stereo not given),–,"inconclusive [inhibitor, partial curve]"
CCC1(C(=O)c2ccccc2)C(c2cccc([N+](=O)[O-])c2)C1(C(=O)OC)C(=O)OC (stereo not given),–,"inconclusive [inhibitor, partial curve]"
O=C(Cn1nc(-c2ccc(Cl)cc2)ccc1=O)NCc1ccc2c(c1)OCO2,inactive: 0.562%,–
CCN(CC)C(=O)CCn1nc(-c2ccc(C)cc2)c2ccccc2c1=O,inactive: -2.68%,–
COc1ccc(NC(=O)CN2CCN(S(=O)(=O)c3ccc(Cl)cc3)CC2)cc1Cl,inactive: -3.85%,–
Cc1ccc(CCNC(=O)c2ccc(CS(=O)(=O)Cc3ccccc3F)o2)cc1,–,"inconclusive [inhibitor, single point]"
COc1ccccc1NC(=O)Nc1nc(CC(=O)Nc2ccccc2F)cs1,–,"inconclusive [inhibitor, full curve, poor fit]"
COc1cc(C(=O)NCC2CCCO2)ccc1OCc1c(C)noc1C (stereo not given),inactive: -10.8%,–
O=C(OC1CCCCC1=O)c1cc(=O)c2ccccc2o1 (stereo not given),inactive: 11.1%,–
COC(=O)C1=CN(C2CC2)C=C(C(=O)OC)C1c1ccc(C(=O)OC)cc1,inactive: -12.3%,–
COc1cccc(-c2sc3ccc(OC)cc3c2-c2ccc(C(N)=O)cc2)c1,–,active: 2.51 µM
Cc1c(Cc2ccccc2)c(=O)n2c([nH]c3ccccc32)c1C#N,–,"inconclusive [inhibitor, single point]"
CN1CCN(c2nc3c(c(=O)[nH]c(=O)n3C)n2Cc2cccc3ccccc23)CC1,–,"inconclusive [inhibitor, single point]"
COc1ccc(C2=C(CN(C)C)C(c3ccccc3)c3ccccc3O2)cc1 (stereo not given),inactive: -0.555%,–
CC(C)[C@H](NC(=O)c1cccc(S(=O)(=O)N2CCOCC2)c1)C(=O)Nc1nc2ccccc2s1,–,"inconclusive [inhibitor, partial curve, poor fit]"
O=C1/C(=C/c2ccccc2)CN(C(=O)CCN2CCOCC2)C/C1=C\c1ccccc1,–,"inconclusive [inhibitor, single point]"
COC(=O)c1cc(NC(=O)c2cc3ccccc3o2)cc(C(=O)OC)c1,–,"inconclusive [inhibitor, single point]"
COc1ccc(CCN2C(=O)CC(NNc3ccc([N+](=O)[O-])cc3)C2=O)cc1OC (stereo not given),inactive: -8.57%,–
Cc1ccc(N(C)S(=O)(=O)c2cccc(C(=O)Nc3nnc(C4CC4)s3)c2)cc1,inactive: 10.3%,–
